PubChem BioAssay (NCATS)
The inconclusive results got no clear call from the source; some entries with a clear call stand among them for comparison. Potencies of inconclusive entries are left out as doubtful fits. Calls of active or inactive are those of the source. Calls come from the whole dose curve; as a rule, active = well fitted cell-killing curve with a large enough effect; inconclusive = small, poorly fitted or top-dose-only effect; inactive = no such curve, though single readings can be large or run the other way.

experiment: qHTS of pediatric cancer cell lines to identify multiple opportunities for drug repurposing: Primary screen for A673 cells (AID 1347092); conditions: A673 Ewing sarcoma viability, CellTiter-Glo ATP luminescence, 48 h; activity change, negative = cytotoxic: at 46 µM (top of the series) unless noted; note: nearly all actives have a fitted effect of over 45% in size
Source text: Drug repurposing or repositioning has been offered as a strategy for drug development in oncology programs. This approach has special potential for childhood cancers and other rare or orphan diseases, where the expected return on new drug development has been a disincentive to pharmaceuticals. […] In this project we exploit the poly-pharmacology of drugs to discover new indications via phenotypic screening of a panel of 19 well-characterized cell lines derived from solid tumors seen in children and adolescents. The goal is to identify approved drugs with previously unrecognized anticancer properties that has the potential to reveal new mechanisms and biological processes involved in carcinogenesis or drug resistance. We employed a titration-based paradigm (quantitative high-throughput screening or qHTS), where all compounds were tested at multiple concentrations for their effect on cell viability. Concentration-response curves (CRCs) were derived directly from the primary screen, and both potency and efficacy values were used to identify compounds with robust bioactivity profiles. We screened the NIH Chemical Genomics Center (NCGC) Pharmaceutical Collection (NPC) and Mechanism Interrogation Plate (MIPE) small molecule collections of approved and investigational compounds against these cell lines; and measured metabolically active cells after 48 hours of compound treatment as a proxy for cell viability. […] Assay Submitter: Nathalia J. Martinez, National Center for Advancing Translational Sciences, National Institutes of Health, Rockville, MD, USA; email: natalia.martinez@nih.gov. Shen, M et al. Quantitative high-throughput phenotypic screening of pediatric cancer cell lines identifies multiple opportunities for drug repurposing. Oncotarget 2017 Dec 19;9(4):4758-4772. PMID 29435139.
The cells were obtained from University of North Carolina (UNC), Pediatric Preclinical Testing Program (PPT), and Coriell Institute (CI). qHTS cell viability assay: Cells were assayed in growth media at a density of 500-1,000 cells/well. Five microliters of cells were dispensed into 1,536-well, white, solid-bottom, TC-treated plates (Greiner Bio One) using a multidrop dispenser and incubated at 37 degrees C, 5% CO2, under a humidified atmosphere for 5 hours. Twenty-three nanoliters of compounds and controls (neutral control DMSO or positive control bortezomib at final concentration of 2.3 uM) were subsequently transferred by Kalypsys pintool. For primary screens, the MIPE collection was tested at 11-point dilutions (final concentrations range from 0.78 nM to 46 µM) and the NPC collection at 8-point dilutions (final concentrations range from 0.59 nM to 46 µM). Compounds tested in follow-up screens were assayed at 11-point dilutions. Cells were incubated for 48 hours, followed by addition of 3 uL of CellTiter-Glo (Promega). After a 15min incubation at room temperature, samples were analyzed for luminescence intensity using a ViewLux High-throughput CCD imager equipped with clear filters.
% is set by controls: 0 for no effect and ±100 for the full control effect; potency is the fitted concentration of half-maximal effect; tags give direction and shape of the fitted curve.

Row | SMILES | activity change, negative = cytotoxic | Potency
1 | CC(=Cc1csc(C)n1)[C@@H]1C[C@H]2O[C@@H]2CCC[C@H](C)[C@@H](O)[C@@H](C)C(=O)C(C)(C)[C@@H](O)CC(=O)O1 | inconclusive: -86.5% | 
2 | C[C@](O)(COc1ccc(C#N)cc1)C(=O)Nc1ccc(C#N)c(C(F)(F)F)c1 |  | inconclusive [cytotoxic, partial curve]
3 | COC(=O)c1cncn1C(C)c1ccccc1 (stereo not given) | inactive: -17% | 
4 | C[C@@H]1CC[C@H]2[C@@H](C)C(=O)O[C@@H]3O[C@@]4(C)CC[C@@H]1[C@]32OO4 | inactive: -17% | 
5 | COc1nn(CSP(=S)(OC)OC)c(=O)s1 |  | inconclusive [cytotoxic, single point]
6 | CC(C)(O)C=CC(=O)[C@](C)(O)[C@H]1[C@H](O)C[C@]2(C)[C@@H]3CC=C4[C@@H](C=C(O)C(=O)C4(C)C)[C@]3(C)C(=O)C[C@@]12C |  | active: 0.187 µM
7 | C[C@H](N)[C@H](O)c1ccc(O)c(O)c1 |  | inconclusive [cytotoxic, single point]
8 | COc1ccc2c(C(=O)c3ccc(Cl)cc3)c(C)n(CC(=O)O)c2c1 |  | inconclusive [cytotoxic, single point]
9 | COc1cc(CC(C)N)c(OC)cc1Br (stereo not given) |  | inconclusive [cytotoxic, single point]
10 | CC[C@@H](CO)NC(=O)[C@@H]1C=C2c3cccc4c3c(cn4C)C[C@H]2N(C)C1 |  | inconclusive [cytotoxic, single point]
11 | COc1ccc(C(=O)N2CCCC2=O)cc1 |  | inconclusive [cytotoxic, single point]
12 | CCC(=O)C(CC(C)N(C)C)(c1ccccc1)c1ccccc1 (stereo not given) |  | inconclusive [cytotoxic, partial curve, poor fit]
13 | C[C@]12CC[C@H]3[C@@H](CCC4=CC(=O)CC[C@@]43C)[C@@H]1CC[C@@H]2C(=O)O | inactive: 6.11% | 
14 | O=[N+]([O-])c1c2ccccc2cc2ccccc12 |  | inconclusive [cytotoxic, single point]
15 | Cc1ccccc1-n1c(Cn2cnc3c(N)ncnc32)nc2cccc(C)c2c1=O |  | active: 0.59 µM
16 | COC[C@H]1OC(=O)c2coc3c2[C@@]1(C)C1=C(C3=O)C2CCC(=O)[C@@]2(C)C[C@H]1OC(C)=O (stereo not given in full) |  | active: 4.69 µM
17 | COc1cccc(C(=O)CCN[C@@H](C)[C@H](O)c2ccccc2)c1 |  | inconclusive [cytotoxic, single point]
18 | Cc1ccccc1-n1c(Cn2ncc3c(N)ncnc32)nc2cccc(C)c2c1=O | inconclusive: -88% | 
19 | CC[C@@H](C(N)=O)N1CCCC1=O |  | inconclusive [cytotoxic, single point]
20 | CN1C(=O)[C@@H](NC(=O)c2cc3ccccc3[nH]2)N=C(c2ccccc2)c2ccccc21 |  | active: 6.68 µM

Row | SMILES | activity change, negative = cytotoxic | Potency
21 | CC1=C2C[C@@H]3[C@@H](CC=C4C[C@@H](O)CC[C@@]43C)[C@@H]2CC[C@]12O[C@H]1C[C@H](C)CN[C@H]1[C@H]2C |  | inconclusive [cytotoxic, partial curve]
22 | O=C1CC[C@@]2(O)[C@H]3Cc4ccc(O)c5c4[C@@]2(CCN3CC2CC2)[C@H]1O5 |  | inconclusive [cytotoxic, partial curve]
23 | CC(C)[C@H]1C(=O)N[C@H](CO)Cc2c[nH]c3cccc(c23)N1C |  | inconclusive [cytotoxic, full curve]
24 | CCC(=O)OC1CCC2C3CCC4=CC(=O)CC[C@@]4(C)C3CC[C@]12C (stereo not given in full) |  | inconclusive [cytotoxic, partial curve]
25 | C#CC(O)(C=CCl)CC (stereo not given) | inactive: 13.2% | 
26 | COc1ccc(C(CN(C)C)C2(O)CCCCC2)cc1 (stereo not given) | inconclusive: -32.6% [cytotoxic] | 
27 | CC(C)=CCN1CC[C@@]2(C)c3cc(O)ccc3C[C@@H]1[C@@H]2C |  | inconclusive [cytotoxic, partial curve, poor fit]
28 | C[C@]12C=CC(=O)C=C1CC[C@@H]1[C@@H]2CC[C@@]2(C)[C@H]1CC[C@]2(C)O |  | inconclusive [cytotoxic, partial curve, poor fit]
29 | C[C@]12CCC(=O)C(O)=C1CC[C@@H]1[C@@H]2CC[C@]2(C)C(=O)CC[C@@H]12 | inactive: 9.93% | 
30 | CCN(Cc1ccc(Cl)nc1)/C(=C/[N+](=O)[O-])NC | inactive: 2.09% | 
31 | CCc1c(C(=O)C(N)=O)c2c(OCC(=O)O)cccc2n1Cc1ccccc1 |  | inconclusive [cytotoxic, single point]
32 | CCO[C@H]1O[C@@H]2OC3(C)CC[C@H]4[C@H](C)CC[C@@H]([C@H]1C)[C@@]24OO3 | inactive: -9.48% | 
33 | C=CCON=C(C[C@H]1O[C@@H]2O[C@]3(C)CC[C@@H]4[C@H](C)CC[C@@H]([C@H]1C)[C@@]24OO3)[C@H]1O[C@@H]2O[C@]3(C)CC[C@H]4[C@H](C)CC[C@@H]([C@@H]1C)[C@@]24OO3 |  | inconclusive [cytotoxic, full curve]
34 | COP(=O)(OC)C(O)C(Cl)(Cl)Cl (stereo not given) | inactive: -10% | 
35 | C[C@]12CCC(=O)C=C1CC[C@@H]1[C@H]3CC[C@](C)(O)[C@@]3(C)CC[C@@H]12 |  | inconclusive [cytotoxic, single point]
36 | CNC(C)Cc1ccc2c(c1)OCO2 (stereo not given) |  | inconclusive [cytotoxic, single point]
37 | COc1ccc2[nH]cc(CCN(C(C)C)C(C)C)c2c1 | inactive: -16.4% [at 92.7 µM] | 
38 | C[C@]12Cc3nonc3C[C@@H]1CC[C@@H]1[C@@H]2CC[C@@]2(C)[C@H]1CC[C@]2(C)O |  | inconclusive [cytotoxic, single point]
39 | C=C[C@@H]1CN2CCC1C[C@H]2[C@H](O)c1ccnc2ccccc12 (stereo not given in full) |  | inconclusive [cytotoxic, single point]
40 | O=c1cccc2n1CC1CNC[C@H]2C1 |  | active: 4.69 µM
